Source: PMC11947617, “Fine‐tuned interactions between globular and disordered regions of single‐stranded DNA binding (SSB) protein are required for dynamic condensation under physiological conditions” (Protein Science : A Publication of the Protein Society, 2025)
No end group written: not given here. fluorescein = fluorescein label

Key:
Details in all cases: both partners purified
[1] = target: T1, fluorescein-labeled SSB C-terminal peptide (E. coli); experiment: fluorescence polarisation; 15 nM flu-CTP titrated with SSBdC; pH 5.5 (20 mM MES, 50 mM KGlu, 5 mM Mg(OAc)2); 25°C
T1 construct: also called flu-CTP; labeled C-terminal peptide
T1 peptide: fluorescein-MDFDDDIPF

[2] = target: T1, fluorescein-labeled SSB C-terminal …; experiment: fluorescence polarisation; 15 nM flu-CTP titrated with SSBdC; pH 6.5 (20 mM MES, 50 mM KGlu, 5 mM Mg(OAc)2); 25°C
[3] = target: T1, fluorescein-labeled SSB C-terminal …; experiment: fluorescence polarisation; 15 nM flu-CTP titrated with SSBdC; pH 4 (20 mM citrate, 50 mM KGlu, 5 mM Mg(OAc)2); 25°C
[4] = target: T1, fluorescein-labeled SSB C-terminal …; experiment: fluorescence polarisation; 15 nM flu-CTP titrated with SSBdC; pH 4.5 (20 mM MES, 50 mM KGlu, 5 mM Mg(OAc)2); 25°C
[5] = target: T1, fluorescein-labeled SSB C-terminal …; experiment: fluorescence polarisation; 15 nM flu-CTP titrated with SSBdC; standard LLPS buffer with 300 mM KGlu and 30 mg/mL PEG; 25°C; quadratic binding equation
[6] = target: T1, fluorescein-labeled SSB C-terminal …; experiment: fluorescence polarisation; 15 nM flu-CTP titrated with SSBdC; pH 3.5 (20 mM citrate, 50 mM KGlu, 5 mM Mg(OAc)2); 25°C
[7] = target: T1, fluorescein-labeled SSB C-terminal …; experiment: fluorescence polarisation; 15 nM flu-CTP titrated with SSBdC; pH 8 (20 mM Tris, 50 mM KGlu, 5 mM Mg(OAc)2); 25°C
[8] = target: T1, fluorescein-labeled SSB C-terminal …; experiment: fluorescence polarisation; 15 nM flu-CTP titrated with SSBdC; standard LLPS buffer with 300 mM KGlu; 25°C; quadratic binding equation
[9] = target: T1, fluorescein-labeled SSB C-terminal …; experiment: fluorescence polarisation; 15 nM flu-CTP titrated with SSB or SSBdC; standard LLPS buffer with 300 mM KCl (Table S2; methods and Figure 5 legend say 300 mM NaCl); 25°C
[10] = target: T1, fluorescein-labeled SSB C-terminal …; experiment: fluorescence polarisation; 15 nM flu-CTP titrated with SSBdC; pH 10 (20 mM Tris, 50 mM KGlu, 5 mM Mg(OAc)2); 25°C
[11] = target: T1, fluorescein-labeled SSB C-terminal …; experiment: fluorescence polarisation; 15 nM flu-CTP titrated with SSBdC; pH 9.5 (20 mM Tris, 50 mM KGlu, 5 mM Mg(OAc)2); 25°C
[12] = target: T1, fluorescein-labeled SSB C-terminal …; experiment: fluorescence polarisation; 15 nM flu-CTP titrated with SSB or SSBdC; standard LLPS buffer (20 mM Tris-OAc pH 7.5, 50 mM KGlu, 5 mM Mg(OAc)2), no PEG; 25°C; quadratic binding equation
[13] = target: T1, fluorescein-labeled SSB C-terminal …; experiment: fluorescence polarisation; 15 nM flu-CTP titrated with SSB or SSBdC; standard LLPS buffer with 30 mg/mL PEG 20,000; 25°C; quadratic binding equation
[14] = target: T1, fluorescein-labeled SSB C-terminal …; experiment: fluorescence polarisation; 15 nM flu-CTP titrated with SSBdC; pH 6 (20 mM MES, 50 mM KGlu, 5 mM Mg(OAc)2); 25°C
[15] = target: T1, fluorescein-labeled SSB C-terminal …; experiment: fluorescence polarisation; 15 nM flu-CTP titrated with SSBdC; pH 9 (20 mM Tris, 50 mM KGlu, 5 mM Mg(OAc)2); 25°C
[16] = target: T1, fluorescein-labeled SSB C-terminal …; experiment: fluorescence polarisation; 15 nM flu-CTP titrated with SSBdC; pH series, pH 7.5 (20 mM Tris, 50 mM KGlu, 5 mM Mg(OAc)2); 25°C
[17] = target: T1, fluorescein-labeled SSB C-terminal …; experiment: fluorescence polarisation; 15 nM flu-CTP titrated with SSBdC; pH 3 (20 mM citrate, 50 mM KGlu, 5 mM Mg(OAc)2); 25°C
[18] = target: T1, fluorescein-labeled SSB C-terminal …; experiment: fluorescence polarisation; 15 nM flu-CTP titrated with SSBdC; pH 7 (20 mM Tris, 50 mM KGlu, 5 mM Mg(OAc)2); 25°C
[19] = target: T1, fluorescein-labeled SSB C-terminal …; experiment: fluorescence polarisation; 15 nM flu-CTP titrated with SSBdC; pH 8.5 (20 mM Tris, 50 mM KGlu, 5 mM Mg(OAc)2); 25°C
[20] = target: T1, fluorescein-labeled SSB C-terminal …; experiment: fluorescence polarisation; 15 nM flu-CTP titrated with SSBdC; pH 5 (20 mM MES, 50 mM KGlu, 5 mM Mg(OAc)2); 25°C

B1: SSBdC, CTP-less SSB variant comprising […] (domain or fragment)
chain: not shown
For B1, the Kd [1] was 1200 nM, the Kd [2] was 1000 nM and the Kd [3] was 930 nM. It also gave a Kd [4] of 510 nM, a Kd [5] of 5900 nM and a Kd [6] of 600 nM. For the same binder, the Kd [7] was 2200 nM, the Kd [8] was 12000 nM and the Kd [9] was > 100000 nM. It also gave a Kd [10] of 6900 nM, a Kd [11] of 6500 nM and a Kd [12] of 2400 nM. The Kd [13] was 80 nM, the Kd [14] was 850 nM and the Kd [15] was 5000 nM. It also gave a Kd [16] of 2000 nM, a Kd [17] of 330 nM and a Kd [18] of 940 nM. For the same binder, the Kd [19] was 2600 nM and the Kd [20] was 650 nM.
